Screen size: about 360,000 compounds; about 6,000 (1.7%) were called active. Another 8% or so got no clear call; they are omitted. The call rests on the fitted dose curve; in most records, active means well fitted cell-killing curve with a large enough effect; inconclusive means small, poorly fitted or top-dose-only effect, or effect the other way; inactive means flat fitted curve, though single readings scatter. The entries are a selection whose mix differs from that of the whole data set. More than one record can exist for a structure, and the calls need not agree.
Experiment: qHTS for induction of synthetic lethality in tumor cells producing 2HG: qHTS for the HT-1080-NT fibrosarcoma cell line; further: nearly all actives have a fitted effect of over 55% in size
Conditions: HT-1080-NT fibrosarcoma viability, CellTiter-Glo ATP luminescence, 48 h; series mostly up to 46.1 µM; activity, negative = less viability: at the top concentration
Description: Unbiased genomic sequencing for 22 glioma genomes found recurrent mutation of IDH1 on chromosome 2q33, a gene encoding the cytosolic isoform of IDH1 associated with the tricarboxylic acid cycle (TCA) that catalyzes the oxidative decarboxylation of isocitrate, yielding alpha-ketoglutarate and CO2 via NADP+ to NADPH conversion. Subsequent studies confirmed the recurrent IDH mutations in up to 70% of secondary gliomas and in 10% of AML cases. In addition, the somatic mutation of cancer-associated IDH1 is a point mutation resulting in various amino-acid substituents at Arginine132 (IDH1 R132), a key residue found in the enzyme's active site that when mutated, results in the loss-of-function in metabolizing isocitrate but confers a gain-of-function to produce the oncometabolite 2-hydroxyglutarate (2HG). This in effect defines IDH1 as an oncogene and provides an extraordinary opportunity to discover chemical probes against mutant IDH1 that may translate into much needed new therapies for glioma and AML patients.
This assay aims to perform a synthetic lethal screen for chemical probes specific for 2HG-producing tumor cells using matched paired cell lines (1) HT-1080-NT fibrosarcoma cell line that overproduces 2HG and (2) HT-1080-IDH1KD cell line which has IDH1 expression knocked-down. Desirable compounds are toxic to the NT fibrosarcoma cells but not to the IDH1KD cell line. The data in this AID corresponds to the results of the qHTS against the HT-1080-NT fibrosarcoma cell line.
[1] Dang L, Jin S, Su SM. IDH mutations in glioma and acute myeloid leukemia. Trends of Mol Med. 2010; 16(9): 387-97.
[2] Dang L et al. Cancer-associated IDH1 mutations produce 2-hydroxyglutarate. Nature. 2010; 465(7300):966.
NIH Molecular Libraries Probe Production Centers Network [MLPCN]
NIH Chemical Genomics Center [NCGC]
Assay Submitter (PI): Lenny Dang Ph.D., Agios Pharmaceuticals
Suspensions of trypsinized HT-1080-NT cells were dispensed into white, tissue culture-treated, solid 1536-well plates at 5uL/well (750 cells/well final concentration) in RPMI medium supplemented with 5% FBS. Plates were incubated at 37 degrees C for 2 hours, after which 23 nL of compounds or DMSO were delivered to each well using a pin tool. Plates were then incubated at 37 degrees C for an additional 48 hours. CellTiter-Glo viability reagent (Promega) was dispensed into wells (2.5uL/well) and incubated at room temperature for 10 minutes. The plates were measured on a PerkinElmer ViewLux plate reader for luminescent signal (clear filter, 1 sec exp). DMSO-treated control wells and media-only (no cells) control wells were used to normalize %Activity of identified toxic compounds; DMSO-treated wells corresponded to 0%Activity (100% viability), while media-only controls were used to normalize 100%Activity (0% viability).
Concentration-response curves were fitted to the signals arising from the resulting luminescence. The concentration-effect curves were then classified based on curve quality (r2), response magnitude and degree of measured activity, and compounds were subsequently categorized based on their curve class.
Potency means the concentration at half of the fitted maximal effect.

Row | SMILES | Potency | activity, negative = less viability
1 | OC[C@H]1O[C@@H](n2cnc3c(NCc4ccco4)ncnc32)[C@H](O)[C@@H]1O | active: 5.8 µM | 
2 | C[C@@H]1C[C@H]2[C@@H]3CCC4=CC(=O)C=C[C@]4(C)[C@@]3(F)[C@@H](O)C[C@]2(C)[C@@]1(O)C(=O)CO |  | inactive: -11.3%
3 | CCC1Nc2ncnc(N3CCCCC3)c2N(Cc2ccc(OC)cc2)C1=O (centres undefined) |  | inactive: 13.1%
4 | O=C(O)/C=C/c1ccc(Cn2ccnc2)cc1 |  | inactive: 15.2%
5 | O=C(O)c1ccc(NN=CC2=C(N3CCOCC3)/C(=C/c3ccccc3)CC2)cc1 |  | inactive: -21.9%
6 | CC(C)C[C@H]1CN([C@@H](CC(C)C)CN2CCCC2CN2C(=S)NC[C@@H]2Cc2ccc(O)cc2)C(=S)N1CC1CCCCC1 (some centres undefined) |  | inactive: 1.71%
7 | Cc1ccc(Cl)c(Nc2ccccc2C(=O)O)c1Cl |  | inactive: -10.7%
8 | CCN(CC)CCOC(=O)c1ccc(NC(=O)CCCN2C(=O)/C(=C/c3cccs3)SC2=S)cc1 |  | inactive: -11.2%
9 | Cc1cc(C)n(-c2nc(NCCN(C)C)c3c4c(sc3n2)COC(C)(C)C4)n1 | active: 18.4 µM | 
10 | Cc1noc(C)c1S(=O)(=O)N(C)C[C@H]1OCc2cnnn2CCCC(=O)N([C@H](C)CO)C[C@@H]1C |  | inactive: 5.36%
11 | CN/C(=C\[N+](=O)[O-])NCCSCc1csc(CN(C)C)n1 |  | inactive: -5.57%
12 | CCCCNc1c(-c2ccc(-c3cccc(Cl)c3)cc2)nc2ccccn12 |  | inactive: -13.8%
13 | OCC[C@H]1C[C@@H](O)[C@H](O)[C@@]2(OCCc3ccccc32)O1 |  | inactive: -0.193%
14 | CCOC(=O)c1c(CSCc2ccccc2)oc2ccc(O)c(CN(C)C)c12 | active: 20.6 µM | 
15 | COc1c2ccoc2nc2c(OC)c(OCC(O)C(C)(C)O)ccc12 (centres undefined) |  | inactive: -8.29%
16 | CN(C)CCC[C@]1(c2ccc(F)cc2)OCc2cc(C#N)ccc21 |  | inactive: -2.07%
17 | CC(Cc1ccccc1)Nc1ncnc2c1ncn2C1OC(CO)C(O)C1O (centres undefined) |  | inactive: -27.2%
18 | O=C(NCc1ccccc1)C1=C[C@H](C2CCCCC2)C[C@H](OCCCCO)O1 |  | inactive: -4.16%
19 | O=C1NC[C@H](Cc2ccc(O)cc2)N(C[C@@H]2CCCN2C[C@H](Cc2ccccc2)N2C[C@H](Cc3ccccc3)N(CCc3ccccc3)C(=O)C2=O)C1=O |  | inactive: 14.6%
20 | COc1ccc(/C=C2/CCc3ccccc3C2=O)cc1CN1CCOCC1 |  | inactive: 3.14%

Row | SMILES | Potency | activity, negative = less viability
21 | C[C@H](CO)N1C[C@H](C)[C@@H](CN(C)CC2CC2)Oc2c(NC(=O)Cc3ccccc3)cccc2C1=O | active: 25.9 µM | 
22 | C[C@]12CCC(=O)C=C1CC[C@@H]1[C@@H]2[C@@H](O)C[C@@]2(C)[C@H]1CC[C@]2(O)C(=O)COC(=O)CCC(=O)O |  | inactive: -26.5%
23 | OCC[C@@H]1C[C@H](O)[C@@H](O)[C@@]2(Cc3ccccc3O2)O1 |  | inactive: -10.9%
24 | CC1(C)OC(c2ccccc2)=C/C(=C/C=N/NC(=O)c2ccncc2)O1 |  | inactive: -15.2%
25 | COc1cccc(-n2c(SCC(=O)NC3CCCCC3)nc3n[nH]c(C)c3c2=N)c1 | active: 14.6 µM | 
26 | Cc1ccc(S(=O)(=O)Nc2c(C)n(C)n(-c3ccccc3)c2=O)cc1 |  | inactive: 14.3%
27 | OC[C@H]1OC(O)[C@@H](O)[C@@H](O)[C@@H]1O (some centres undefined) |  | inactive: 5.46%
28 | COC(C[C@@H](O)C[C@@H](O)[C@H](C)OCc1ccccc1)OC |  | inactive: 1.38%
29 | OCC[C@@H]1C[C@@H](O)[C@H](O)[C@]2(OCCCc3ccccc32)O1 |  | inactive: 13.1%
30 | CCN(CC)Cc1cc2[nH]c3c4ccc(Cl)cc4ncc3c2cc1OC |  | inactive: -16.9%
31 | O=C(/C=C/c1ccc(Br)cc1)c1ccc(NC(=O)c2ccco2)cc1 |  | inactive: 13.1%
32 | O=C(C=Cc1ccccc1Cl)c1ccccc1 | active: 23.1 µM | 
33 | CCC(=O)/C=C1/Sc2ccc(OC)cc2N1CCO |  | inactive: 12%
34 | C/C(=N\NC(=O)c1ccc(Br)cc1)C1C(=O)c2ccccc2C1=O | active: 2.24 µM | 
35 | COc1ccc(Nc2c3ccccc3nc3ccccc23)cc1 | active: 9.2 µM | 
36 | CCOC(=O)[C@@H]1[C@H]2COc3ccccc3[C@H]2N2C(=O)N(c3ccc(Cl)cc3)C(=O)[C@]12C |  | inactive: -23.4%
37 | CCN1/C(=C2/OC(=S)N(C)C2=O)Sc2ccccc21 |  | inactive: -8.81%
38 | Cc1ccccc1NC1=C/C(=N\S(=O)(=O)c2cccs2)c2ccccc2C1=O | active: 5.8 µM | 
39 | COc1ccc2c3c([nH]c2c1)C1CC2C(CC(O)C(OC)C2C(=O)O)CN1CC3 (centres undefined) |  | inactive: -4.25%
40 | C=CCOc1ccc(C(=O)Nc2ccccc2C(=O)NCc2cccnc2)cc1 | active: 20.6 µM | 

Row | SMILES | Potency | activity, negative = less viability
41 | CCO/C([O-])=N/c1c[n+](N2CCOCC2)no1 |  | inactive: 16.6%
42 | CCN(CC)c1ccc(/C=C2\SC(=O)N(C(C)C)C2=O)o1 | active: 16.4 µM | 
43 | OCC[C@H]1C[C@@H](O)[C@H](O)[C@]2(OCCCc3ccccc32)O1 |  | inactive: 7.74%
44 | OCCN1CCN(CC(O)COc2ccc(C34CC5CC(CC(C5)C3)C4)cc2)CC1 (centres undefined) | active: 18.4 µM | 
45 | CC(=O)OCC(=O)C1(O)CCC2C3CCC4=CC(=O)C=CC4(C)C3C(O)CC21C (centres undefined) |  | inactive: 23.5%
46 | CCCCCCCCCCCCCCCC(O)C(N)CO (centres undefined) |  | inactive: 23.5%
47 | OCC[C@@H]1C[C@H](O)[C@@H](O)[C@]2(OCCc3ccccc32)O1 |  | inactive: 9.69%
48 | O=C(/C=C(\O)c1ccc(Cl)cc1)C(=O)NNC(=O)C(O)(c1ccccc1)c1ccccc1 |  | inactive: -25.1%
49 | CC1CC2C3CCC4=CC(=O)C=CC4(C)C3(F)C(O)CC2(C)C1(O)C(=O)CO (centres undefined) |  | inactive: 26.1%
50 | Clc1cccc(N=C2NN=C(c3ccc4c(c3)OCCO4)CS2)c1 | active: 10 µM | 
51 | O[C@H]1CN(Cc2cccs2)[C@@H](c2ccc(Cl)cc2)C[C@@H]1n1cc(C2CC2)nn1 |  | inactive: 10.2%
52 | CC(=O)CC1OC(=O)C(Br)=C1NCc1ccccc1 (centres undefined) | active: 3.55 µM | 
53 | Cc1ccc(Cc2c(-c3ccco3)nc3ccc(Br)cn23)cc1 | active: 18.4 µM | 
54 | CCOC(=O)[C@H]1[C@H]2COc3cc(OC)ccc3[C@@H]2N2C(=O)N(c3ccc(Br)cc3)C(=O)[C@@]12C |  | inactive: 4.98%
55 | Cc1ccc2c(c1)c1c3n2CCNC3CCC1 (centres undefined) |  | inactive: -10.8%
56 | COc1ccc(NC(=O)C(=O)NCC2CCCN2S(=O)(=O)c2ccc(C)cc2)cc1 (centres undefined) | active: 0.206 µM | 
57 | CN/C(=C\[N+](=O)[O-])NCCSCc1ccc(CN(C)C)o1 |  | inactive: 27.6%
58 | O=C(Nc1ccc(CN2CCOCC2)cc1)c1ccc(-c2ccc(Br)cc2)o1 | active: 14.1 µM | 
59 | CC(C)(C)OC(=O)C[C@@H]1C/C=C\C[C@@H](CC(=O)NCCO)C(=O)NC[C@H](c2ccccc2)OC1=O |  | inactive: -5.77%

— PubChem BioAssay AID686970 (National Center for Advancing Translational Sciences (NCATS), 2013)
